According to the supplement of paper PMC10126150:
Values marked as one replicate rest on one cluster of the flow cell; about a third of the high ones do not repeat.

System: ATP
Experiment: switch fluorescence ratio, 500 uM ATP over buffer (Cy3 cluster intensity, sum of 5 cycles each) (fold (ratio)); higher = stronger signal-on switching upon ATP binding; sequences stand for … in TCGTCGGCAGCGTCAGATGTGTATAAGAGACAGTTTTTTTTTTTTTTTTTTTTTTTTT…TC
Settings: aptamer strand: ATP DNA aptamer (quencher-CACCTGGGGGAGTATTGCGGAGGAAGG + anchor), 100 nM annealed; ATP concentration: 500 uM; one replicate
Procedure, shortened: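 Cy3-labelled switching-strand clusters on a modified Illumina MiSeq flow-cell were annealed to 100 nM quencher-labelled ATP aptamer, imaged in selection buffer, then imaged after 15 min with 500 uM ATP at 22 °C. Five buffer/ATP cycles ran, with NaOH stripping and re-annealing between them. The fluorescence ratio is summed target-cycle over summed buffer-cycle Cy3 intensity per cluster, averaged per switch-domain sequence. Clusters outside 100-1000 RFU were excluded.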
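Also: ATP exposure 15 min at 22 °C before imaging.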

Row | Sequence | switch fluorescence ratio
1 | GGTGAGTCAC | 1.02
2 | TAAAGGGTGT | 1.02
3 | CAATATTCAC | 1.04
4 | ACGATCGGTA | 1
5 | TCCACATATG | 0.989
6 | TGAAGTTAAC | 0.997
7 | AAAGATCAA | 1.05
8 | TTGGTATTAC | 1.02
9 | ATTGTGTTAT | 0.996
10 | GTTCGGGATA | 1.02
11 | CACATTCCTA | 1.01
12 | GGCAAAGCCG | 1.04
13 | ACGGTACAGG | 1.45
14 | CCTATTCTGT | 0.92
15 | TGGGTTAGAA | 0.986
16 | ATGTATAGC | 0.984
17 | TTTTGTTCT | 1.01
18 | CGGGGCCAGA | 1.03
19 | TTTGTGGAAA | 1.02
20 | CAGCCATAGG | 0.976
21 | TAAGACCTGC | 1.12
22 | GGGGCCTCCG | 1.28
23 | GGACGATTTT | 0.955

Row | Sequence | switch fluorescence ratio
24 | AGGAGGGAGT | 1.02
25 | GTAATTACGA | 1
26 | CGGTTTCTAA | 0.977
27 | CAACCTCCTG | 1.03
28 | CCTGGAATGA | 1.06
29 | GTGCTTGGGA | 0.964
30 | AAATGCCAGT | 0.961
31 | ATTGAGTAGG | 1.02
32 | ATGTGCGTG | 0.958
33 | GAACGTAGA | 1
34 | ACTCAGTACC | 1.1
35 | TGGTCTACGG | 1.02
36 | GGCACTCGTG | 0.994
37 | CGGTCCATAA | 1.04
38 | TAATGCAGC | 1.14
39 | ATTGTATCAA | 1.12
40 | GGCGCTGTGG | 1.03
41 | CATGGCTGGA | 1.09
42 | ATATATACAC | 1.02
43 | GCGTGTTGA | 1.04
44 | GATTACGCAC | 1.58
45 | ACTATTATGG | 1.02
46 | GGGTACCGTC | 0.995

Row | Sequence | switch fluorescence ratio
47 | AATTACTTG | 1.04
48 | CGGTACAGAG | 0.99
49 | TGGGATTTAT | 0.954
50 | AACTGCGAGG | 1
51 | AGGAACGGGA | 1.05
52 | ATTAGAGACC | 1.03
53 | AACCTAAGTC | 1.02
54 | GTTTTGGACA | 0.984
55 | TATGGCAAAG | 1.02
56 | CATGAGGGAA | 1.04
57 | CTGCATGTT | 1.03
58 | AACGCATCAC | 5.45
59 | GTACATTAAA | 1.03
60 | TTAGTCGGTA | 0.992
61 | CTTTCGGGCA | 0.985
62 | ACGTGCTAGC | 1.05
63 | GTGAGATTGA | 1.02
64 | ATTAACACAC | 1.42
65 | CTATTCTACC | 1
66 | TTATCTCCAC | 1.04
67 | TGACCGGGTG | 1.63
68 | TATTGTCTCG | 1.01
69 | TGAGCCATCC | 1.15

Row | Sequence | switch fluorescence ratio
70 | GTTTATGGAG | 0.985
71 | CGTACCCAAT | 1.3
72 | GCTTTATTGT | 1.06
73 | TGAACCCGT | 0.985
74 | CGTGGGCGTA | 0.97
75 | GTGATATGCG | 0.985
76 | AGAGAAAGCT | 1.01
77 | TCTTCCTTTG | 1.34
78 | AATATTCTAA | 0.979
79 | GACATCACGA | 1.41
80 | GAGTTTGCGC | 1.01
81 | TCAGCCAAGG | 1.06
82 | AACCAAAAGT | 0.968
83 | AAAGCGGAGC | 1.07
84 | GCTGTTGACT | 0.979
85 | CAGCGTGACT | 1.11
86 | GGGGAACTCC | 1.28
87 | GGATTGTCGA | 0.992
88 | GCGTAGAATA | 0.98
89 | TTAATTACAC | 1.01
90 | TGGAACTCGA | 1.01
91 | TTATATTTTA | 0.956
92 | TGGAAACTTA | 0.971

Row | Sequence | switch fluorescence ratio
93 | ATTGATAGAT | 0.996
94 | TAGCAGGTCC | 1.06
95 | GTAACCCGGT | 0.974
96 | AAATGATGTA | 0.957
97 | TCTATACCGG | 1
98 | TCATACTGTA | 1.21
99 | ATCCTGCGC | 2.09
100 | AGTGGAGTAT | 0.979
101 | GTTGTAATGT | 1
102 | TGACGTGGTT | 0.977
103 | TAATAGGCCA | 0.998
104 | CGCGACGCCG | 1.05
105 | AACGGTGGAC | 1.01
106 | CATCGCATGG | 2.18
107 | GTACGGGTTT | 1.02
108 | TAGGGGGAGG | 0.977
109 | GTGGCCGTGT | 1.09
110 | CCAGTCTACC | 1.03
111 | ACGGCTTCGG | 1.01
112 | ACGAAAATAC | 2.03
113 | CCTCGTGGAT | 1.13
114 | AAAACGCTTG | 0.993
115 | ACCGAGAAGT | 1.01

Row | Sequence | switch fluorescence ratio
116 | AGCAACCGAC | 3.32
117 | TGATGCGG | 0.998
118 | GTTGAAGGTT | 0.961
119 | ATTATATTTT | 0.971
120 | CCCGTTTTGA | 1.05
121 | CTATTACACT | 1.04
122 | TAGCTTACTC | 2.96
123 | TAGGAGAGTG | 0.993
124 | AATAGGTCGA | 0.931
125 | GATATCAGT | 0.984
126 | GAATGAAATA | 0.987
127 | CAAATTAGA | 0.979
128 | CTCCCGGGGT | 1.5
129 | TTAAGGAAA | 0.964
130 | CAACAGTCAT | 0.976
131 | CGTCTCGCAC | 2.96
132 | GCGCATCGTT | 0.966
133 | TCAACACAGC | 1.06
134 | ACTACGTCAG | 1.07
135 | TAAAATCGGT | 1.06
136 | ACGCGCCCTT | 0.937
137 | GCGTTGTCTA | 1.02
138 | ACGCTATTTG | 1.19

Row | Sequence | switch fluorescence ratio
139 | TTTATTGCTG | 1.01
140 | CTAGGCATGT | 1
141 | TCACGAATTC | 1.01
142 | AGTAGCGTAT | 1.01
143 | GCGGGATAGC | 1.05
144 | TTGATCCCAA | 1.05
145 | GGTTAAGTTG | 0.987
146 | CCAGCTGCAG | 1.03
147 | TAACGCCACT | 2.13
148 | ACGTTAAGCC | 1.11
149 | GTCTCGACAG | 0.999
150 | GACTGTTATT | 1.06
151 | ATCGTTAATA | 1.02
152 | TACCTATGTC | 0.997
153 | GTGATCACTG | 0.965
154 | GACGCTGACC | 3.45
155 | GAGTACGGAA | 1.37
156 | CAGTATGGTT | 0.998
157 | ATAACCCCAC | 1.26
